From PubChem BioAssay AID1508623 (National Center for Advancing Translational Sciences (NCATS), 2021) come the findings set out here.

Among all 48,000 compounds or so, about 450 (0.94%) were called active. Not shown: some 19% with an inconclusive outcome. The call rests on the fitted dose curve; in most records, active means well fitted inhibition curve with a large enough effect; inconclusive means small, poorly fitted or top-dose-only effect; inactive means no such curve, though single readings can be large or run the other way. Some of the results follow.

This experiment in a line: Primary qHTS for Identification of Small Molecule Inhibitors of Huntingtin Promoter Activity. Further: nearly all actives have a fitted effect of over 50% in size. The settings on record: HEK293 HTT promoter firefly luciferase reporter (activity 0% = vehicle and -100% = no light), 24 h; series mostly up to 57.5 µM; activity change, negative = inhibition: at the top concentration. An outline of the steps:
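Firefly luciferase signal from promoter-reporter HEK293 cells was scaled between vehicle (0%) and zero RLU (-100%). Compounds were tested at final concentrations of up to 57.5 uM over 24 h at 37 degrees C. PTC124 at 50 uM final served as control inhibitor.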
On the technique in general: Quantitative high-throughput screening tests each substance at several concentrations.
For `CCc1ccccc1NC(=O)CSc1nnc(-c2ccccc2)c(-c2ccccc2)n1`, the “activity change, negative = inhibition” value is inactive: -26.2%.

On to `COCCNC(=O)Cn1c(=O)c2cccn2c2ccc(F)cc21`, for which the “activity change, negative = inhibition” value is inactive: 7.36%.

Regarding `CCc1nnc(NC(=O)c2nc(SC)ncc2Cl)s1`, the “activity change, negative = inhibition” value is inactive: -4.33%.

For the compound `NC(=O)CSc1nc2c(oc3ccccc32)c(=O)n1Cc1ccccc1`, the “activity change, negative = inhibition” value is inactive: -7.17%.

For `Cc1ccccc1C(=O)Nc1c(C(=O)Nc2cccc(F)c2)oc2ccccc12`, the “activity change, negative = inhibition” value is inactive: -18.3%.

Regarding `O=C(NCc1ccc2c(c1)OCO2)c1ccc2c(c1)N(Cc1ccccc1F)C(=O)c1ccccc1S2=O` (configuration not stated), the “activity change, negative = inhibition” value is inactive: -12.9%.

On to `C[C@@H]1CCC[C@H](C)N1CCCC(O)(c1ccccc1)c1ccccn1` (some centres not stated), for which the “activity change, negative = inhibition” value was inactive: -2.65%.

`CCCN(C(=O)c1c(C)oc2ncnc(N3CCOCC3)c12)c1ccc(Cl)c(Cl)c1`: the “activity change, negative = inhibition” value was inactive: -10.2%.

In the case of `Cc1cccn2c3c(c(=O)nc12)C(c1ccc(F)cc1)CC(=O)N3` (configuration not stated), the “activity change, negative = inhibition” value is inactive: -15.3%.

Turning to `O=S(=O)(NCC(c1ccco1)N1CCN(c2ccccc2)CC1)c1ccccc1` (configuration not stated), the “activity change, negative = inhibition” value is inactive: -13.3%.

Regarding `CCOc1ccc(Cn2nnc(C(=O)Nc3ccc(Cl)cc3)c2N)cc1`, the “activity change, negative = inhibition” value is inactive: 0.761%.

For the compound `COc1ccccc1CNC(=O)C1CCN(C(=O)c2sccc2-n2cccc2)CC1`, the “activity change, negative = inhibition” value was inactive: -28.1%.

For `CN(C1CCCCC1)S(=O)(=O)c1ccc2c(c1)c(=O)c(C(=O)NCc1ccc(F)cc1)cn2C`, the “activity change, negative = inhibition” value was inactive: -7.31%.

As for `CCn1ccc2c(OCC(=O)Nc3ccc(C(C)=O)cc3)cccc2c1=O`, the “activity change, negative = inhibition” value was inactive: -20.6%.

For `O=c1c(=O)n(-c2ccccc2)ccn1Cc1c(F)cccc1Cl`, the “activity change, negative = inhibition” value was inactive: -15.6%.

Regarding `CCOc1cccc(NC(=O)c2sc3nc(-c4ccc(F)cc4)ccc3c2N)c1`, the “activity change, negative = inhibition” value is inactive: -0.275%.

For `COc1cc(CNCCSc2nnnn2C)ccc1OCc1ccc(C)cc1`, the “activity change, negative = inhibition” value is inactive: 26.2%.

In the case of `O=C(COCc1cc(-c2cccs2)on1)N1CCN(c2ccc(F)cc2)CC1`, the “activity change, negative = inhibition” value was inactive: -27.6%.

Turning to `Cc1nc2cccnc2n1C1CCN(C(=O)Nc2ccccc2)CC1`, the “activity change, negative = inhibition” value was inactive: -17%.

For the compound `Cc1cc(C)cc(N2CC(c3nnc(NC(=O)c4ccco4)s3)CC2=O)c1` (configuration not stated), the “activity change, negative = inhibition” value is inactive: -21.4%.

As to `COc1cc(C(=O)Nc2ccc(-n3c(C)nc4ccccc4c3=O)cc2)cc(OC)c1OC`, the “activity change, negative = inhibition” value was inactive: 0%.

With `O=c1c2oc3ccccc3c2n(Cc2ccc(F)cc2)c(=O)n1Cc1ccco1`, the “activity change, negative = inhibition” value is inactive: -9.06%.

`CCCCn1c(=NC(=O)c2c(-c3c(F)cccc3Cl)noc2C)c(C(=O)OCC)cc2c(=O)n3ccccc3nc21`: the “activity change, negative = inhibition” value is inactive: -9.29%.

For the compound `Cc1ccc(-c2noc(-c3ccc(NCc4cccnc4)c([N+](=O)[O-])c3)n2)cc1`, the “activity change, negative = inhibition” value was inactive: 5.16%.

Take `CCOC(=O)C1CCN(C(c2ccc(OCC)cc2)c2c(O)cc(C)n(CCOC)c2=O)CC1` (configuration not stated): the “activity change, negative = inhibition” value was inactive: -13%.

`COc1ccc(CNS(=O)(=O)c2cc(Br)cc3c2N(C(C)=O)C(C)C3)cc1` (configuration not stated): the “activity change, negative = inhibition” value was inactive: -19.4%.

As for `O=C(NCc1cccc(F)c1)c1ccc(CN2CC(=O)N3CCCCC3C2=O)cc1` (configuration not stated), the “activity change, negative = inhibition” value was inactive: -19.5%.

Regarding `CCCCc1ccc(-n2nc3cc(Cl)c(NC(=O)c4ccc(OC)cc4)cc3n2)cc1`, the “activity change, negative = inhibition” value was inactive: 15.7%.

On to `CCOC(=O)c1ccc2nc(C)cc(Nc3ccc(OC(C)C)cc3)c2c1`, for which the “activity change, negative = inhibition” value was inactive: -28.8%.

For the compound `Cc1cccc(C(=O)NCCc2nc3ccccc3n2Cc2ccc(Cl)cc2)c1`, the “activity change, negative = inhibition” value was inactive: -11.9%.

For `Cc1ccc(OC(C)C(=O)N2CCN(CCc3ccncc3)CC2)cc1C` (configuration not stated), the “activity change, negative = inhibition” value was inactive: -32.9%.

With `Cc1ccc(NC(=O)c2ccc(Cl)cc2Cl)c(C(=O)c2ccccc2)c1`, the “activity change, negative = inhibition” value is inactive: -20.6%.

As for `O=S(=O)(NCc1ccc(Cl)cc1)c1ccc2[nH]c3c(c2c1)CCCC3`, the “activity change, negative = inhibition” value is inactive: -6.73%.

`CCOc1ccc(-c2cc3c(=O)n(Cc4nc(-c5ccccc5OCC)oc4C)ccn3n2)cc1Cl`: the “activity change, negative = inhibition” value was inactive: -7%.

`Cc1ccc(Cn2c(C)c(CNCC(C)c3ccccc3)c(C(=O)O)c2C)cc1` (configuration not stated): the “activity change, negative = inhibition” value was inactive: -25.8%.

For the compound `CCC(CC)C(=O)Nc1ccccc1SCc1cc(=O)c2cccc(C)c2[nH]1`, the “activity change, negative = inhibition” value is inactive: 0.0389%.

For the compound `COCCCNC(=O)C1CCC(Cn2c(=O)c3sccc3n(C)c2=O)CC1` (configuration not stated), the “activity change, negative = inhibition” value is inactive: -1.45%.

As to `Cc1ccc(NC(=O)CN2CCN(c3ccccc3F)CC2)cc1F`, the “activity change, negative = inhibition” value is inactive: -2.78%.

As to `CCOC(=O)C1CCN(c2nc3c(S(=O)(=O)c4ccccc4)nnn3c3ccc(Cl)cc23)CC1`, the “activity change, negative = inhibition” value was inactive: 12.1%.

Consider `COc1ccc(C(=O)c2sc3nc(-c4ccc(C)cc4)cc(C(F)(F)F)c3c2N)cc1`, for which the “activity change, negative = inhibition” value was inactive: -13.1%.

With `COc1cc(OC)cc(C(=O)Nc2ccc(-c3nc4cc(C(C)C)ccc4o3)cc2)c1`, the “activity change, negative = inhibition” value is inactive: -25.3%.

In the case of `Cc1ccc(C)c(N2CCN(S(=O)(=O)c3ccc(-c4coc(C)n4)cc3)CC2)c1`, the “activity change, negative = inhibition” value was inactive: -28.9%.

`CCCCN(CCCNC(=O)c1cc(Nc2ccc(OC)cc2)nc2ccccc12)Cc1ccccc1`: the “activity change, negative = inhibition” value was inactive: 0%.

For `COc1cc2c3cc1Oc1cc(ccc1O)C[C@@H]1c4c(cc(OC)c(O)c4Oc4ccc(cc4)C[C@@H]3N(C)CC2)CC[N+]1(C)C`, the “activity change, negative = inhibition” value was inactive: 9.46%.

On to `Cc1cccc(N2CCN(C(=O)Cn3ncc4c5ccccc5n(C)c4c3=O)CC2C)c1` (configuration not stated), for which the “activity change, negative = inhibition” value was inactive: 5%.

Consider `O=c1c(S(=O)(=O)c2ccccc2)cn(Cc2ccc(F)cc2)c2cc(N3CCOCC3)c(F)cc12`, for which the “activity change, negative = inhibition” value was inactive: -10.5%.

In the case of `CC(=O)C1=C(c2ccc(Cl)c(Cl)c2)N(C(C)=O)n2c(nnc2-c2ccccc2)S1`, the “activity change, negative = inhibition” value was inactive: -8.86%.

Take `O=C(COCc1cc(-c2ccc(F)cc2)on1)Nc1cc(Cl)ccc1O`: the “activity change, negative = inhibition” value was inactive: -12.8%.

Take `COc1ccc(CCNC(=O)CCCn2c(=O)c3ccccc3n(Cc3ccccc3C#N)c2=O)cc1OC`: the “activity change, negative = inhibition” value is inactive: -4.18%.

Take `Nc1nonc1C(=O)NCCNCc1ccccc1F`: the “activity change, negative = inhibition” value is inactive: -5.76%.

Regarding `COc1cccc(C2C=C(c3ccccc3)Nc3c(C(=O)Nc4ccccc4)cnn32)c1OC` (configuration not stated), the “activity change, negative = inhibition” value was inactive: -9.44%.

With `COc1cc(C(CC(=O)Nc2cccc(C(C)=O)c2)N2Cc3ccccc3C2=O)cc(OC)c1OC` (configuration not stated), the “activity change, negative = inhibition” value was inactive: -6.8%.

Consider `CC(=O)Nc1nonc1-c1nnc(SCC(=O)Nc2cc(Cl)ccc2C)n1C`, for which the “activity change, negative = inhibition” value was inactive: -17.6%.

Regarding `CC1(C)[C@H](C(=O)O)N2C(=O)C[C@H]2S1(=O)=O`, the activity change, negative = inhibition result was “inactive”.

Turning to `CCOC(=O)c1c(NC(=O)/C=C/c2ccc(C)cc2)sc(C(C)=O)c1C`, the “activity change, negative = inhibition” value is inactive: -0.802%.

Regarding `Cc1cccc(C(=O)Nc2sc3c(c2C(=O)NC(C)C)CCCC3)c1`, the “activity change, negative = inhibition” value is inactive: -20.9%.

For the compound `CCOC(=O)c1cc(S(=O)(=O)NCc2cccc(Cl)c2)[nH]n1`, the “activity change, negative = inhibition” value was inactive: 11.1%.

Turning to `CCOC(=O)c1cnc2cc(F)c(F)cc2c1Nc1ccccc1O`, the “activity change, negative = inhibition” value was inactive: -3.9%.

As for `CC(C)(C)OC(=O)N1CCC(c2c(C(=O)N3CCCCC3)cnn2-c2cccc(F)c2)CC1`, the “activity change, negative = inhibition” value was inactive: -11.3%.

On to `Nc1nnnn1-c1ccccc1`, for which the “activity change, negative = inhibition” value is inactive: -2.51%.

Take `CC(=O)c1ccc(N2CCN(C(=O)CCc3nnc4n(C)c(=O)c5sccc5n34)CC2)cc1`: the “activity change, negative = inhibition” value is inactive: -19.4%.

Take `COc1cc(OC)c(NC(=O)c2noc3c2CSc2ccccc2-3)cc1Cl`: the “activity change, negative = inhibition” value was inactive: -15.8%.
